Results taken from PMC4336329 (PLoS ONE, 2015).
Screen size: about 310,000 compounds; about 14,000 (4.5%) showed an effect of 50% or more. The effect is printed as a negative number. Some of the results follow.

Target: human ether-à-go-go-related gene (hERG) potassium channel (human, UniProt Q12809)
Test: primary screen, population patch clamp on CHO cells stably expressing hERG
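Note: peak tail current of the secondary pulse compared with the same well before compound.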

Sequence of human ether-à-go-go-related gene (hERG) potassium channel (Q12809 whole entry, looked up): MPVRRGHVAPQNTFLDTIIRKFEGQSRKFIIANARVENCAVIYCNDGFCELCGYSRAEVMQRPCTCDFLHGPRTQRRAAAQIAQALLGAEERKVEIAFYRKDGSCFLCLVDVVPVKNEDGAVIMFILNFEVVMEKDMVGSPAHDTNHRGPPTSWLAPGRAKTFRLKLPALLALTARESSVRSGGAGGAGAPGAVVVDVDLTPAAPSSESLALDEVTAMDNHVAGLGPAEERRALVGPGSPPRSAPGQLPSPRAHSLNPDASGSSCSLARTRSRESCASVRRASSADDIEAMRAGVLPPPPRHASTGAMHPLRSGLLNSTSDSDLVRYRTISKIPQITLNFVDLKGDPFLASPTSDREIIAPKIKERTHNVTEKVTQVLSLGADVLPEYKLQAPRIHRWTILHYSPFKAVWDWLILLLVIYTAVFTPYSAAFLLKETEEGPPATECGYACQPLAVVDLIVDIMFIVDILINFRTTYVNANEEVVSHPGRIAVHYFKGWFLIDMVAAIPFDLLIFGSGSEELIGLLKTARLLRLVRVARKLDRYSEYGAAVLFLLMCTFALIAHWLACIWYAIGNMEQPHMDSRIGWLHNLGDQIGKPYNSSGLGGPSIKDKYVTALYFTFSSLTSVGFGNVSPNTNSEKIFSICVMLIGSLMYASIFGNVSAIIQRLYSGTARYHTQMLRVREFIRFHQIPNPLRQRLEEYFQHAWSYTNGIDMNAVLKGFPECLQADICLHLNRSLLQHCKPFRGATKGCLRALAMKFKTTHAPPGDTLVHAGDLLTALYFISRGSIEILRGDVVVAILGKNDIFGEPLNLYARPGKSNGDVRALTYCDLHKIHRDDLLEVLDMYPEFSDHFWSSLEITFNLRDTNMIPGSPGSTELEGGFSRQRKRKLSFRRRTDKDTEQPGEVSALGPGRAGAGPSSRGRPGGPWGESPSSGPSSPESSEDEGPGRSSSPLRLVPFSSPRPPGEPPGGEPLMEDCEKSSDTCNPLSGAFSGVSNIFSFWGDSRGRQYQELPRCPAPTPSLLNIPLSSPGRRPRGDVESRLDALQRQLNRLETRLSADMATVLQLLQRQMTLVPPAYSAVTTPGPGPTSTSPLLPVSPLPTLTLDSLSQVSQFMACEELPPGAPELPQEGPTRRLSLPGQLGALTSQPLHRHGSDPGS

| SMILES | hERG current change (%, negative = inhibition) at 10uM [%] |
| --- | --- |
| O=C(NC1CC1)C1=C[C@H](c2ccccc2)C[C@H](OCc2ccc(CO)cc2)O1 | -19.9 |
| COc1ccc(CCNC(=O)C2CC(=O)N(CCc3ccc(C)cc3)C2)cc1OC (stereo not drawn) | -14.9 |
| Cc1ccccc1SC1CCN(C(=O)C2CCC(=O)N(C3CC3)C2)CC1 (stereo not drawn) | -3.61 |
| Cc1cc(C)c2oc(C(=O)NC3CCS(=O)(=O)C3)cc(=O)c2c1 (stereo not drawn) | -17.6 |
| Cc1ccc(C(=O)N/N=C2/NC(=O)CC(C(=O)Nc3ccccc3)S2)cc1 (stereo not drawn) | -3.81 |
| CCc1ccc(Nc2n[n+](-c3ccccc3)c(/C=C/c3ccccc3)s2)cc1.[Cl-] | -69 |
| O=Nc1c(O)n(Cc2cccc(C(F)(F)F)c2)c2ccccc12 | 0.334 |
| CCOC(=O)C(=CNNc1ccsc1C(=O)OC)C(=O)OCC | 8.87 |
| C=CCNC(=O)CSc1nnc(-c2ccc(S(=O)(=O)N3CCCC3)cc2)n1C | 12.3 |
| C=C(C)Cn1c(SCC(=O)N/N=C/c2ccccc2OCC(=O)O)nnc1-c1ccc(Br)cc1 | 6.46 |
| CCc1cc(/C(Cc2ccccn2)=N\Nc2ccccc2)c(O)cc1O | 14.9 |
| N#C/C(=N\Nc1ccccc1)C(=N)N1CCOCC1 | -7.71 |
| O=[N+]([O-])c1ccc(/C=N/N2CCN(Cc3ccccc3)CC2)cc1 | -56.3 |
| Cc1nc(-c2ccc(NC(=O)c3ccccc3)cc2)cs1 | 3.65 |
| CN(C)c1ccc(/C=C/c2ccc3ccccc3[n+]2C)cc1.[I-] | -59.9 |
| O=C(O)c1ccc2c(c1)OCCO2 | 3.19 |
| OCCSc1nc(N2CCOCC2)nc(N2CCOCC2)n1 | 4.34 |
| CCN(C(=O)N1CCOCC1)c1ccccc1 | 18.1 |
| CCCC(=O)Nc1ccc2nc(SCC(=O)Nc3ccc(N4CCOCC4)c(Cl)c3)sc2c1 | 14.8 |
| Cc1cc(/C([O-])=C(/C(=S)Nc2ccc(F)cc2)[n+]2ccccc2)c(C)n1-c1ccc(F)cc1 | -4.59 |
| CCC(=O)N1CCN(c2ccc(OC)cc2[N+](=O)[O-])CC1 | -19.5 |
| NS(=O)(=O)c1ccc(CCNC(=O)Nc2ccc(Cl)c(Cl)c2)cc1 | 15.3 |
| CCCn1c(CN2CCN(C(C)=O)CC2)nc2cc(S(=O)(=O)N(C)C)ccc21 | 9.97 |
| CC1CCCC(C)N1/N=C/C=C/c1ccccc1[N+](=O)[O-] (stereo not drawn) | 11.1 |
